PubChem BioAssay AID1745853 (National Center for Advancing Translational Sciences (NCATS), 2022)
The other results are listed elsewhere or left out. These are further read-outs of the screen, such as a control signal, another cell line or another target. No call is given for them.

Key:
Assay in all cases: Primary Screen for Target Class Profiling of Small Molecule Inhibitors of Methyltransferases
[1] = biological target: Glycine N-methyltransferase (Homo sapiens) (UniProt Q14749); conditions: purified enzyme, MTase-Glo SAH luminescence; measured here: GNMT inhibition; at 40 µM; stronger effect = lower value
Method in brief: (§1)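 Each enzyme was reacted with SAM and its substrate, with compounds tested once at 40 uM; SAH formed was read by MTase-Glo luminescence.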

[2] = biological target: Guanidinoacetate N-methyltransferase (Homo sapiens) (UniProt Q14353); conditions: purified enzyme, MTase-Glo SAH luminescence; measured here: GAMT inhibition; at 40 µM; stronger effect = lower value
Method in brief: as §1

[3] = biological target: Histamine N-methyltransferase (Homo sapiens) (UniProt P50135); conditions: purified enzyme, MTase-Glo SAH luminescence; measured here: HNMT inhibition; at 40 µM; stronger effect = lower value
Method in brief: as §1

[4] = biological target: Nicotinamide N-methyltransferase (Homo sapiens) (UniProt P40261); conditions: purified enzyme, MTase-Glo SAH luminescence; measured here: NNMT inhibition; at 40 µM; stronger effect = lower value
Method in brief: as §1

[5] = biological target: Phenylethanolamine N-methyltransferase (Homo sapiens) (UniProt P11086); conditions: purified enzyme, MTase-Glo SAH luminescence; measured here: PNMT inhibition; at 40 µM; stronger effect = lower value
Method in brief: as §1
% is scaled to controls: 0 for no effect and ±100 for the full control effect.

Row | Compound | activity change, negative = inhibition [1] [%] | activity change, negative = inhibition [2] [%] | activity change, negative = inhibition [3] [%] | activity change, negative = inhibition [4] [%] | activity change, negative = inhibition [5] [%]
1 | CC1(C)C[C@H](O)C[C@@]2(C)OC(=O)C=C12 | -6.14 | -22.3 | -0.127 | -31.8 | -4.12
2 | Cc1ccc(=O)n(-c2ccccc2)c1 | 1.63 | 13.3 | 8.71 | -2.55 | 7.41
3 | Cc1cccc(NC(=O)CSc2nnc3n(CC(C)C)c(=O)c4ccccc4n23)c1 | -2.77 | 2.63 | 6.94 | -4.31 | 2.81
4 | Cc1nc(C(=O)N2CC[C@H](NC(=O)c3snnc3C)C[C@H]2C(=O)N[C@H](CC(C)C)C(N)=O)cs1 | -7.78 | -10.5 | -3 | -13.6 | -0.516
5 | CCc1ccc(CNC(=O)c2cc3n(n2)CC(C)(C(=O)NCc2ccc(C)cc2)N(C)C3=O)cc1 (stereo not given) | -0.524 | 0.325 | -0.38 | -8.38 | -1.28
6 | CCC(C)NC(=O)c1ccc2c(=O)n(CCC(C)C)c3nn(Cc4cccc(C)c4)c(=O)n3c2c1 (stereo not given) | 3.44 | 0 | 8.38 | 3.25 | 6.7
7 | Cc1cc(C)cc(NC(=O)CSc2nnc3n(CCCOC(C)C)c(=O)c4ccccc4n23)c1 | -1.15 | 0 | 3.46 | -3.35 | 2.17
8 | COC(=O)c1ncn2c1C(=O)N(c1cccc(C)c1C)C(C)(C(=O)NC1CCCC1)C2 (stereo not given) | -0.834 | 5.55 | -4.49 | 0.995 | -1.49
9 | CC1(C)CCCC2(C)C1C(=O)C=C(C(=O)O)C2(O)C(=O)O (stereo not given) | 0 | -5.62 | 6.61 | -19.9 | -11.1
10 | Cc1nc(C2CC(O)C2)cc(N2CCN(c3nc4ccccc4s3)CC2)n1 (stereo not given) | -12.8 | -11.5 | -15.8 | -16.6 | 4.97
11 | Cc1cc(C)cc(NC(=O)Cn2c(-c3cnccn3)nc(C)c(C)c2=O)c1 | -11.4 | -8.81 | -5.5 | -9.72 | -8.92
12 | CCC(CC)C(=O)N1CCC2(CC1)C(=O)N(C)c1ccccc12 | -7.9 | -8.92 | -3.87 | -5.05 | -6.1
13 | CCCN1C(=O)c2c(C(=O)NCCc3ccc(Cl)cc3)ncn2CC1(C)C(=O)NCc1ccc(F)cc1 (stereo not given) | 0.955 | 0.967 | 9.43 | 8.86 | 12.9
14 | CCc1c(C)nn(CCNC(=O)c2cc(S(N)(=O)=O)ccc2F)c1C | -0.967 | -1.65 | 0.813 | -1.34 | -0.093
15 | O=C(Cc1ccccn1)N1CCCC(C(=O)N2CCC(N3CCCC3=O)CC2)C1 (stereo not given) | -1.05 | -5.87 | 0.526 | -7.79 | -3.54
16 | Cc1ccc(Cn2c(=O)c3ccc(C(=O)NC(C)C)cc3n3c(=O)n(Cc4cccc(C)c4)nc23)cc1 | 5.21 | 4.73 | 7 | 4.26 | 3.28
17 | COCCNC(=O)CCn1ccc2cc(S(=O)(=O)N3CCCCC3)ccc21 | 1.69 | 3.51 | 0.854 | 3.6 | 1.74
18 | CCOc1ccccc1NS(=O)(=O)c1ccc2[nH]c(=O)[nH]c2c1 | 0.251 | 0 | 1.69 | -3.12 | -7.55
19 | Cc1cccc(NC(=O)Cn2nc3n(CC(C)C)c(=O)c4ccc(C(=O)NCC(C)C)cc4n3c2=O)c1 | 4.27 | 0.136 | 5.21 | 3.04 | 5.51
20 | CCCC1c2ccc(C)n2CCN1C(=O)Nc1cc(Cl)ccc1C(=O)OC (stereo not given) | -18.6 | 1.06 | -12.8 | -6.42 | -8.88
21 | Cc1nc(N2CCN(C(=O)c3ccco3)CC2)c2c3c(sc2n1)CCCC3 | -35 | -3.13 | -17.7 | -49.6 | -18.6
22 | Cc1cccc(N2CCN(C(=O)Cn3ncc4ccc(Cl)cc43)CC2)c1C | 0.061 | 0 | 2.69 | 8.82 | 0.686
23 | COc1ccccc1CNC(=O)C1(C)Cn2c(cc3ccccc32)C(=O)N1Cc1cccc(F)c1 (stereo not given) | 6.58 | 4.89 | 9.79 | 9.02 | 2.85
24 | Cn1c(=O)n(C)c2cc(S(=O)(=O)N(Cc3ccco3)C(=O)c3cccnc3)ccc21 | 5.52 | 0.431 | 8.99 | 18.3 | 5.93
25 | Cc1cc2[nH]c(=O)[nH]c2cc1S(=O)(=O)NCCc1ccccc1 | 2.4 | 0 | -3.04 | -5.82 | -8.95
26 | CC(C)n1c(=O)c2ccc(C(=O)NC3CCCC3)cc2n2c(=O)n(Cc3ccc(F)cc3Cl)nc12 | 0.338 | 0 | 5.69 | 2.89 | 1.94
27 | CC(C)c1ccc(N2C(=O)c3cc4sccc4n3CC2(C)C(=O)NC2CCCC(C)C2C)cc1 (stereo not given) | 0.717 | 0.386 | 1.23 | 2.41 | -1.59
28 | CCn1ncc(CN2CCCC23CCN(c2ccc(C(F)(F)F)cn2)CC3)c1C | -5.87 | -5.46 | -7.98 | -11 | 0.403
29 | COc1cc(N2CCOCC2)ccc1Nc1ncc(F)c(Nc2ccccc2NS(C)(=O)=O)n1 | -52.1 | -0.011 | 7.57 | -14.1 | -11.5
